In all, about 33,000 sequences were measured (“E-score (-0.5 to 0.5)”: median about -0.013, highest 2% from about 0.3 on). The list shows a part of the results.
Each sequence was assayed against T1, Msn1 (UniProt P22148) (assay: PBM E-score (8-mer binding enrichment) (E-score (-0.5 to 0.5)); higher = stronger / more preferred TF binding; most listed sequences are background and not binding sites). Settings: protein concentration: 200 nM; construct: GST-full length.
T1 sequence: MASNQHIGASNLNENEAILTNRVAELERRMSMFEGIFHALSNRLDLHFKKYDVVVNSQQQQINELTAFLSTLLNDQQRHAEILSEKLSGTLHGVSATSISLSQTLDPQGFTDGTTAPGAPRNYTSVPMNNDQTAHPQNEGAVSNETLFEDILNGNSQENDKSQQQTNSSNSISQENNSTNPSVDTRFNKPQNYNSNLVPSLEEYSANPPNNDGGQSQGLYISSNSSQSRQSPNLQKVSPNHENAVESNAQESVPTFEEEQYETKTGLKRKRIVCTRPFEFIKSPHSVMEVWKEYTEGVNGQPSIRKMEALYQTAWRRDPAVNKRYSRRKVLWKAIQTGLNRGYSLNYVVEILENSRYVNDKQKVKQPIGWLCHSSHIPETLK
In short: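 Bound GST-tagged yeast transcription factors, applied at about 100-200 nM to double-stranded universal all-10-mer Agilent arrays, were detected with fluorescent anti-GST. Scans were normalised with masliner. A modified Wilcoxon-Mann-Whitney statistic, the E-score, was assigned to each ungapped eight-base word pooled with its reverse complement by the Universal PBM Analysis Suite.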
In the case of ACTCGTGA, the “PBM E-score” value is reported as -0.166. With ATATTGGC the “PBM E-score” value was -0.0271. For CACCTGCG, the “PBM E-score” value was -0.0437. CCGGGTGA was tested, and the “PBM E-score” value was -0.172. In the case of CTCGGCAG, the “PBM E-score” value is reported as 0.0797. In the case of AAGTGCGT, the “PBM E-score” value is reported as -0.119. With GCATAAAA the “PBM E-score” value was 0.128. With AAGCACCT the “PBM E-score” value was -0.035. In the case of GACATAAA, the “PBM E-score” value is reported as 0.44. GTCCTGTA was tested, and the “PBM E-score” value was 0.238. With GTATCCTA the “PBM E-score” value was -0.123. CACAGACG was tested, and the “PBM E-score” value was -0.0835. In the case of CACCTCGG, the “PBM E-score” value is reported as -0.00555. For TACATGAA, the “PBM E-score” value was 0.117. With GGAACTCC the “PBM E-score” value was -0.101. For ACTGGACT, the “PBM E-score” value was 0.105. With AGTAGCTC the “PBM E-score” value was -0.124. ATATGCCG was tested, and the “PBM E-score” value was 0.0736. With TAGTTTCA the “PBM E-score” value was 0.123. GTAAATAA was tested, and the “PBM E-score” value was 0.235. With GACAGTCA the “PBM E-score” value was -0.15. With TACTTGCA the “PBM E-score” value was 0.0278. In the case of ACGGTACG, the “PBM E-score” value is reported as 0.00684. With ACTTCTAA the “PBM E-score” value was 0.0582. With GCCCGTCC the “PBM E-score” value was -0.139. GTGGCATA was tested, and the “PBM E-score” value was -0.0828. AGTCGAAA was tested, and the “PBM E-score” value was 0.0085. CCTACATA was tested, and the “PBM E-score” value was -0.0806. For GGGTCTGA, the “PBM E-score” value was -0.19. For AGGTTCTG, the “PBM E-score” value was -0.0681. In the case of ACTGAGAG, the “PBM E-score” value is reported as -0.118. AGCGATTG was tested, and the “PBM E-score” value was -0.0756. For GAGAAGAA, the “PBM E-score” value was -0.0583. In the case of TGCCAGAA, the “PBM E-score” value is reported as 0.00991. For GTACCCGA, the “PBM E-score” value was -0.0726. In the case of CTCTCCGA, the “PBM E-score” value is reported as -0.0802. With ACACTGCT the “PBM E-score” value was 0.00953. CATTTTGG was tested, and the “PBM E-score” value was 0.115. With GATACACA the “PBM E-score” value was -0.0615. With AGAAATAG the “PBM E-score” value was -9e-05. In the case of CTAAATCA, the “PBM E-score” value is reported as -0.0127. CCGCGAAC was tested, and the “PBM E-score” value was 0.0353. In the case of AACAGTTA, the “PBM E-score” value is reported as 0.0308. In the case of AGAGGAGC, the “PBM E-score” value is reported as -0.304. In the case of ACGCGCCG, the “PBM E-score” value is reported as -0.0147. In the case of AATCCATG, the “PBM E-score” value is reported as 0.0111. In the case of ATCGTCCG, the “PBM E-score” value is reported as 0.0902. In the case of AAATTCAT, the “PBM E-score” value is reported as -0.00598. CACCCGTA was tested, and the “PBM E-score” value was -0.0199. ACTTCATG was tested, and the “PBM E-score” value was 0.103. CACCCTGG was tested, and the “PBM E-score” value was -0.246. ACAGCCAC was tested, and the “PBM E-score” value was -0.115. CCTCATGC was tested, and the “PBM E-score” value was -0.179. With CTCCCATA the “PBM E-score” value was -0.185. For ATCTCTTG, the “PBM E-score” value was -0.192. In the case of GAGGGAAA, the “PBM E-score” value is reported as -0.2. With GCTACGCC the “PBM E-score” value was -0.314. With AGGGCACT the “PBM E-score” value was -0.227. With CCGTAACC the “PBM E-score” value was 0.0588. ATTGCAGA was tested, and the “PBM E-score” value was 0.152. CCCAGACG was tested, and the “PBM E-score” value was -0.186. In the case of CGGTCGTC, the “PBM E-score” value is reported as -0.237. With ACCATGGT the “PBM E-score” value was -0.314. With CCCCTTTA the “PBM E-score” value was -0.222. For ACTCTGAG, the “PBM E-score” value was -0.0558. For GAGAACCA, the “PBM E-score” value was -0.0324. In the case of ATACTCTC, the “PBM E-score” value is reported as -0.137. In the case of CCCCCACC, the “PBM E-score” value is reported as -0.401. For CACGGGAA, the “PBM E-score” value was -0.0568. With ATACCCCC the “PBM E-score” value was -0.00214. With CGGGAAAC the “PBM E-score” value was -0.0427. With CCTAGGTA the “PBM E-score” value was -0.103. With AGGCTCAG the “PBM E-score” value was -0.177. With GGCGGAAA the “PBM E-score” value was -0.0622. For CCAAATGG, the “PBM E-score” value was 0.169. With AAGGCGTA the “PBM E-score” value was -0.18. For CGGTTCGC, the “PBM E-score” value was 0.00341. With GAGGATCA the “PBM E-score” value was -0.0851. In the case of CGAGCAGC, the “PBM E-score” value is reported as 0.0174. For AATTTAGT, the “PBM E-score” value was 0.193. With AGATGGAA the “PBM E-score” value was -0.145. In the case of TGCGGCCA, the “PBM E-score” value is reported as 0.0229. In the case of GTGGTTGA, the “PBM E-score” value is reported as -0.00485. For ACGTAGGG, the “PBM E-score” value was -0.17. For GCTTCGAC, the “PBM E-score” value was -0.0286. With ATAGGCTG the “PBM E-score” value was 0.0277. With AGTCAGGG the “PBM E-score” value was -0.204. With ACTATGTC the “PBM E-score” value was 0.292. AGCCTTGC was tested, and the “PBM E-score” value was -0.155. In the case of CAAGTGGA, the “PBM E-score” value is reported as 0.0396. CCTGAGGA was tested, and the “PBM E-score” value was 0.111. In the case of AGCCGGAT, the “PBM E-score” value is reported as -0.0299. In the case of CGTACTAC, the “PBM E-score” value is reported as 0.0017. With AATCTGGT the “PBM E-score” value was 0.0578. CACAACAA was tested, and the “PBM E-score” value was 0.0782. For AAACTTTA, the “PBM E-score” value was 0.036. In the case of CGTAGAAA, the “PBM E-score” value is reported as 0.0903. With GAAACTTA the “PBM E-score” value was 0.045. With CAGTCGCC the “PBM E-score” value was -0.17. With TGAACCCA the “PBM E-score” value was -0.025. AGTTTTTA was tested, and the “PBM E-score” value was 0.0974. AGATTCAT was tested, and the “PBM E-score” value was -0.101. In the case of AGGAAGCA, the “PBM E-score” value is reported as -0.211. For ACCCCTAC, the “PBM E-score” value was -0.364. AATAGGTG was tested, and the “PBM E-score” value was -0.0378. With AGCCCTAT the “PBM E-score” value was -0.184. CTTACACC was tested, and the “PBM E-score” value was -0.1. For AAAAACAT, the “PBM E-score” value was 0.153. In the case of CTTGGACA, the “PBM E-score” value is reported as 0.44. AAGTATTA was tested, and the “PBM E-score” value was 0.125. With GACCAAAC the “PBM E-score” value was -0.0324. GCTCAGCA was tested, and the “PBM E-score” value was -0.146. TAGTCCGA was tested, and the “PBM E-score” value was 0.21. ACACCCGC was tested, and the “PBM E-score” value was 0.0238. With GACTTCGA the “PBM E-score” value was -0.0085. With GCGAGTTA the “PBM E-score” value was 0.0821. In the case of CAGCTTCG, the “PBM E-score” value is reported as -0.0245. For GATTTAGA, the “PBM E-score” value was 0.0734. CGCAACCG was tested, and the “PBM E-score” value was -0.0704. For CACGTACA, the “PBM E-score” value was 0.281. For AGTCCGCC, the “PBM E-score” value was 0.0819. In the case of ATAGTAAG, the “PBM E-score” value is reported as -0.0092. AGCGAGGC was tested, and the “PBM E-score” value was -0.154. For CGGGGTGA, the “PBM E-score” value was -0.165. For AAGCGTAC, the “PBM E-score” value was -0.0935. For AATCTATA, the “PBM E-score” value was 0.163. ATAGGATG was tested, and the “PBM E-score” value was -0.0777. With CGTAAATC the “PBM E-score” value was -0.0485. In the case of AGCCTACG, the “PBM E-score” value is reported as 0.144. With CATTGGAC the “PBM E-score” value was 0.178. With ACTGTGCA the “PBM E-score” value was -0.123. In the case of CCTTTTTA, the “PBM E-score” value is reported as -0.0333. In the case of CGAGGTTA, the “PBM E-score” value is reported as 0.118. With TGAGGCCA the “PBM E-score” value was -0.117. With CGCCCTGC the “PBM E-score” value was -0.329. With GAGGGAGA the “PBM E-score” value was -0.218. In the case of AAAACCTC, the “PBM E-score” value is reported as 0.182. CAGTGCTC was tested, and the “PBM E-score” value was -0.259. ATTAAGCA was tested, and the “PBM E-score” value was -0.0173. With AAGCTTAC the “PBM E-score” value was -0.113. For TCGGTGAA, the “PBM E-score” value was 0.0999. For TAACATGA, the “PBM E-score” value was 0.0502. With TGAACGAA the “PBM E-score” value was -0.0529. In the case of CAAGTGAA, the “PBM E-score” value is reported as 0.223. ATACACCC was tested, and the “PBM E-score” value was 0.0322. With TAGAACGA the “PBM E-score” value was 0.125. For ACTCCGCC, the “PBM E-score” value was -0.0537. ACTCACCC was tested, and the “PBM E-score” value was -0.195. ACGACAGG was tested, and the “PBM E-score” value was 0.0905. For AATATGTA, the “PBM E-score” value was 0.335. AGGTTCGC was tested, and the “PBM E-score” value was -0.124. For AGTCAGAG, the “PBM E-score” value was -0.2. With TAATCGCA the “PBM E-score” value was 0.0856. With AGCGTTGC the “PBM E-score” value was -0.00865. In the case of AAGAGAAG, the “PBM E-score” value is reported as 0.0611. In the case of CAACGGCG, the “PBM E-score” value is reported as -0.018. In the case of AGTGTTGC, the “PBM E-score” value is reported as 0.087. With CATCCCTC the “PBM E-score” value was -0.141. In the case of ATCATTGG, the “PBM E-score” value is reported as -0.0397. With GGAGTCCA the “PBM E-score” value was -0.171. TAATTAAA was tested, and the “PBM E-score” value was 0.0351. For TAAATGCA, the “PBM E-score” value was -0.0113. For AGGTTCCA, the “PBM E-score” value was -0.111. With AGGCAGAT the “PBM E-score” value was -0.035. With CCTCCAGA the “PBM E-score” value was -0.181. AATGCGGT was tested, and the “PBM E-score” value was -0.218. For GGACTGTA, the “PBM E-score” value was -0.0567. CGGCAAAC was tested, and the “PBM E-score” value was -0.0152. ACATCGCT was tested, and the “PBM E-score” value was 0.14. With ACTCGGGG the “PBM E-score” value was -0.107. In the case of ACGAAGTA, the “PBM E-score” value is reported as -0.136. GCTCAGGA was tested, and the “PBM E-score” value was 0.081.

Source: the supplement of paper PMC3334620
